The results in this text go back to PubChem BioAssay AID360 (National Center for Advancing Translational Sciences (NCATS), 2006).

Structures are written as SMILES. The campaign covered roughly 48,000 compounds. About 550 (1.1%) were called active. Roughly 4% stayed inconclusive and do not appear here. Rule as the data show it: active = potency below about 15 µM; inconclusive = mostly about 16 µM to 33 µM; inactive = weaker than that. This is one part of the list.
Potency is read from the fitted curve at half-maximal effect.

Sequence of UniProt P04062 (P04062 whole entry, looked up): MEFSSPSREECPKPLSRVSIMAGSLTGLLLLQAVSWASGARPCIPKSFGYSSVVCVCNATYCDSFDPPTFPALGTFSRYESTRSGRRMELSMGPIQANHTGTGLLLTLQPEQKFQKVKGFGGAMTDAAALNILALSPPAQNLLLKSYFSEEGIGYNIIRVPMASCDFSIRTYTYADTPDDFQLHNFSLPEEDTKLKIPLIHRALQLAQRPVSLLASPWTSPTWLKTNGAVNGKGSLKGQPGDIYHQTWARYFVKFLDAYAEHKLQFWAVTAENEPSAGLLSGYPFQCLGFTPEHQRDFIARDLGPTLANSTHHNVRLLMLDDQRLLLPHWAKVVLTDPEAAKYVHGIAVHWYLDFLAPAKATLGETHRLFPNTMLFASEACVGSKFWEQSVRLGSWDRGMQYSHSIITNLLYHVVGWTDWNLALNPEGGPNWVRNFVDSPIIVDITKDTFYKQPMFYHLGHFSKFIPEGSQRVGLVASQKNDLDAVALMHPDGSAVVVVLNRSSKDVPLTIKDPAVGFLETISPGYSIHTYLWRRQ

In the assay the target is Lysosomal acid glucosylceramidase (Homo sapiens) (UniProt P04062). Description: Glucocerebrosidase.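 Also: the screen sought inhibitors.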 To be noted: purified enzyme, resorufin glucoside fluorescence (screen aimed at inhibitors), 20 min. The method, boiled down:
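Wild-type enzyme at 0.2 nM final in 50mM citric acid/KH2PO4, 10mM sodium taurocholate, 0.01% tween-20, pH 5.9, with resorufin beta-D-glucopyranoside at 30 uM final. Compounds titrated, 20 min at RT, red fluorescence read; AC50 from titration.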
For the molecule `Nc1ncc(Br)cc1S(=O)(=O)NCCC(=O)N1CCN(c2ncccn2)CC1`, the Potency was inactive: > 76.9 µM.
With `CCOc1ccc(N2C(=O)CC(n3nc(C)cc3C)C2=O)cc1` (stereo not drawn) the figure was inactive: > 76.9 µM.
Turning to `CCOC(=O)c1ccc(NC(=O)NCc2ccncc2)cc1`, the Potency is inactive: > 76.9 µM.
For the molecule `CCN(CC)c1nc(C#N)nc(N(CC)CC)n1`, the Potency was inactive: > 76.9 µM.
The same measure for `COCCNC(=O)Nc1ccc2c(c1)N(C)C(=O)CS2`: inactive: > 76.9 µM; for `Cc1c(Cl)cccc1NC(=O)CCN1CCCCCC1`: inactive: > 76.9 µM.
With `O=c1c2cnn(-c3ccccc3Cl)c2ncn1Cc1cccnc1` the figure was inactive: > 76.9 µM.
For `COc1ccc(Nc2nnc(Cc3ccccc3)c(=O)[nH]2)c(OC)c1`, the Potency is inactive: > 76.9 µM.
`COc1ccc(S(=O)(=O)N(CC(=O)NC2CC2)c2ccc(C)cc2)cc1OC`: the Potency was inactive: > 76.9 µM.
The same measure for `CC(CN1CCN(C)CC1)OC(=O)c1ccc(Cl)cc1` (stereo not drawn): inactive: > 76.9 µM; for `COc1ccc(Oc2coc3cc(OC(=O)N4CCOCC4)ccc3c2=O)cc1`: inactive: > 76.9 µM; for `COc1ccccc1NC(=O)CCSc1nnnn1C`: inactive: > 76.9 µM.
With `O=C(CCCNS(=O)(=O)c1cccs1)N1CCN(c2ccc(F)cc2)CC1`, the Potency was inactive: > 76.9 µM.
With `OC1C=CSc2nc3ccccc3n21` (stereo not drawn) the figure was inactive: > 76.9 µM; with `CCCn1c(C)nc2c(c1=O)c1nc3ccccc3nc1n2CCc1ccccc1`, inactive: > 76.9 µM; with `CC1CN(C(=O)c2cnn3c(C(F)F)cc(-c4ccccc4)nc23)CC(C)O1` (stereo not drawn), inactive: > 76.9 µM.
The same measure for `O=C(Nc1cnn(Cc2ccc(F)cc2)c1)c1cc(-c2cccs2)on1`: inactive: > 76.9 µM; for `CCOC(=O)CSc1nnc(CNC(=O)c2cc(OC)c(OC)c(OC)c2)n1C`: inactive: > 76.9 µM.
`NC(=O)c1c(C(F)(F)F)cc(-c2ccccc2)nc1NCCO`: the Potency is inactive: > 76.9 µM.
`FC(F)(F)COc1nc(OCC(F)(F)F)nc(N2CCN(c3ccccc3)CC2)n1`: the Potency is inactive: > 76.9 µM.
The same measure for `CC(C)CC(C(=O)Nn1cnnc1)N1C(=O)c2ccccc2C1=O` (stereo not drawn): inactive: > 76.9 µM.
Regarding `COc1ccc(OC)c(NC(=O)c2[nH]c(C)c(C(C)=O)c2C)c1`, the Potency was inactive: > 76.9 µM.
The same measure for `COc1cccc(C(C#N)N2CCCCC2)c1O` (stereo not drawn): inactive: > 76.9 µM; for `O=C(C1CCCO1)N1CCN(c2ncccn2)CC1` (stereo not drawn): inactive: > 76.9 µM.
With `CCN(CC)S(=O)(=O)c1cccc(-c2nnc(SCCCC(=O)c3ccc(F)cc3)o2)c1` the figure was inactive: > 76.9 µM; with `Cc1cc(C(=O)N2CCN(c3ncccn3)CC2)sc1-c1ccccc1`, inactive: > 76.9 µM.
The same measure for `COc1ccc(OC)c(-n2c(N)c(C(=O)NCC3CCCO3)c3nc4ccccc4nc32)c1` (stereo not drawn): inactive: > 76.9 µM; for `Cc1ccc(C2(C)NC(=O)N(CC(=O)NC(=O)NC3CCCC3)C2=O)cc1` (stereo not drawn): inactive: > 76.9 µM.
With `Cc1ccc(C2NC(=O)NC(O)(C(F)(F)F)C2C(=O)c2ccccc2)o1` (stereo not drawn), the Potency was inactive: > 76.9 µM.
With `COCCCNC(CC(=O)Nc1ccc(N(C)C)cc1)C(=O)O` (stereo not drawn) the figure was inactive: > 76.9 µM; with `CCn1c(SCC(=O)c2ccc(Cl)s2)nnc1-c1cccs1`, inactive: > 76.9 µM; with `CCc1nc(SCC(=O)N2CCN(C(=O)c3ccco3)CC2)c2c3c(sc2n1)CCCC3`, inactive: > 76.9 µM.
With `CC(c1ccccc1)n1cc(C(=O)NCc2cccnc2)nn1` (stereo not drawn) the figure was inactive: > 76.9 µM; with `CCOc1cc(C(=O)NCC(C)CN(C)C)cc(OCC)c1OCC` (stereo not drawn), inactive: > 76.9 µM.
With `COc1ccc(-c2ccc(-c3noc(C(C)C)n3)c(OC)n2)cc1` the figure was inactive: > 76.9 µM; with `CCOC(=O)C1CCN(S(=O)(=O)c2cccc(-c3cn4ccccc4n3)c2)CC1`, inactive: > 76.9 µM; with `CCC(=O)Nc1c(C)c(CC)nc2ccccc12`, inactive: > 76.9 µM.
Turning to `Nc1nc(CSc2ncn(-c3ccccc3)n2)cs1`, the Potency was inactive: > 76.9 µM.
With `O=C(Nc1ccc2c(c1)OCO2)c1ccc(S(=O)(=O)NCC2CCCO2)cc1` (stereo not drawn) the figure was inactive: > 76.9 µM.
With `Cc1ccc(S(=O)(=O)N2CCCC2C(=O)OCc2ccco2)cc1` (stereo not drawn) the figure was inactive: > 76.9 µM; with `c1ccc(-c2ccccc2OCCn2cncn2)cc1`, inactive: > 76.9 µM.
Regarding `COc1cc(CC(=O)Nc2ncc(C)s2)cc(OC)c1OC`, the Potency is inactive: > 76.9 µM.
With `Cc1ccc2nc(-c3cccc(NC(=O)c4ccc5c(c4)OCCO5)c3)oc2c1` the entry was “inactive”.
With `CCOC(=O)CN1C(=O)C(CC)Oc2ccc(Cl)cc21` (stereo not drawn) the figure was inactive: > 76.9 µM; with `Cc1cc(NC(=O)CSc2nc3ccccc3c(=O)n2CCCC(=O)NCc2ccco2)n[nH]1`, inactive: > 76.9 µM; with `Cc1ccc(CNC(=O)C2CCN(S(=O)(=O)c3cccs3)CC2)o1`, inactive: > 76.9 µM.
Consider `CCc1ccccc1NC(=O)CSc1nnc(-c2ccco2)n1N`, for which the Potency was inactive: > 76.9 µM.
As to `COc1cccc(OC)c1C(=O)N1CCN(Cc2ccc3c(c2)OCO3)CC1`, the Potency is inactive: > 76.9 µM.
The same measure for `COc1ccc(S(=O)(=O)Nc2cc(C)ccn2)cc1OC`: inactive: > 76.9 µM.
With `CC(NC(=O)Nc1nnc(C(F)(F)F)s1)N1C(=O)C2C3C=CC(C3)C2C1=O` (stereo not drawn) the figure was inactive: > 76.9 µM; with `O=S(=O)(c1ccc(Sc2nnc3ccccn23)nc1)N1CCOCC1`, inactive: > 76.9 µM; with `CS(=O)(=O)N1CCN(c2ccccc2NC(=O)Cc2ccccc2)CC1`, inactive: > 76.9 µM.
With `CN(C1CCS(=O)(=O)C1)S(=O)(=O)c1ccc(C2CCCCC2)cc1` (stereo not drawn) the figure was inactive: > 76.9 µM; with `CCCS(=O)(=O)N1CCC(C(=O)NCCCOC)CC1`, inactive: > 76.9 µM.
`CCOC(=O)/C(C#N)=C(\N)C(C)C(=O)Nc1ccccn1` (stereo not drawn): the Potency is inactive: > 76.9 µM.
With `Cc1oc2c(CN3CCOCC3)c(O)ccc2c(=O)c1-c1ccccc1` the figure was inactive: > 76.9 µM; with `CCC(C)[C@H](NC(=O)NCc1cccc(OC)c1)C(=O)OC` (stereo partly drawn), inactive: > 76.9 µM; with `CCOC(=O)C1CCN(C(=O)Cn2cc(C(=O)C3CC3)c3ccccc32)CC1`, inactive: > 76.9 µM.
